Test results published in PubChem BioAssay AID504333 (National Center for Advancing Translational Sciences (NCATS), 2011).
Hit rate of the full screen: of about 360,000 compounds, about 16,000 (4.4%) were called active. Inconclusive means that the source gave no clear call. Such entries were picked first, then a sample of the others. Calls come from the whole dose curve; as a rule, active = well fitted inhibition curve with a large enough effect; inconclusive = small, poorly fitted or top-dose-only effect; inactive = no such curve, though single readings can be large or run the other way. Potencies of inconclusive entries are doubtful fits and often do not repeat.

biological target: Bromodomain adjacent to zinc finger domain protein 2B (Homo sapiens) (UniProt Q9UIF8); experiment: qHTS Assay for Inhibitors of BAZ2B; details: AlphaScreen BAZ2B-H3K14Ac peptide displacement; series mostly up to 114 µM; note: nearly all actives have a fitted effect of over 60% in size
Chain of UniProt Q9UIF8 (Q9UIF8 whole entry, looked up, the tested form may be a part): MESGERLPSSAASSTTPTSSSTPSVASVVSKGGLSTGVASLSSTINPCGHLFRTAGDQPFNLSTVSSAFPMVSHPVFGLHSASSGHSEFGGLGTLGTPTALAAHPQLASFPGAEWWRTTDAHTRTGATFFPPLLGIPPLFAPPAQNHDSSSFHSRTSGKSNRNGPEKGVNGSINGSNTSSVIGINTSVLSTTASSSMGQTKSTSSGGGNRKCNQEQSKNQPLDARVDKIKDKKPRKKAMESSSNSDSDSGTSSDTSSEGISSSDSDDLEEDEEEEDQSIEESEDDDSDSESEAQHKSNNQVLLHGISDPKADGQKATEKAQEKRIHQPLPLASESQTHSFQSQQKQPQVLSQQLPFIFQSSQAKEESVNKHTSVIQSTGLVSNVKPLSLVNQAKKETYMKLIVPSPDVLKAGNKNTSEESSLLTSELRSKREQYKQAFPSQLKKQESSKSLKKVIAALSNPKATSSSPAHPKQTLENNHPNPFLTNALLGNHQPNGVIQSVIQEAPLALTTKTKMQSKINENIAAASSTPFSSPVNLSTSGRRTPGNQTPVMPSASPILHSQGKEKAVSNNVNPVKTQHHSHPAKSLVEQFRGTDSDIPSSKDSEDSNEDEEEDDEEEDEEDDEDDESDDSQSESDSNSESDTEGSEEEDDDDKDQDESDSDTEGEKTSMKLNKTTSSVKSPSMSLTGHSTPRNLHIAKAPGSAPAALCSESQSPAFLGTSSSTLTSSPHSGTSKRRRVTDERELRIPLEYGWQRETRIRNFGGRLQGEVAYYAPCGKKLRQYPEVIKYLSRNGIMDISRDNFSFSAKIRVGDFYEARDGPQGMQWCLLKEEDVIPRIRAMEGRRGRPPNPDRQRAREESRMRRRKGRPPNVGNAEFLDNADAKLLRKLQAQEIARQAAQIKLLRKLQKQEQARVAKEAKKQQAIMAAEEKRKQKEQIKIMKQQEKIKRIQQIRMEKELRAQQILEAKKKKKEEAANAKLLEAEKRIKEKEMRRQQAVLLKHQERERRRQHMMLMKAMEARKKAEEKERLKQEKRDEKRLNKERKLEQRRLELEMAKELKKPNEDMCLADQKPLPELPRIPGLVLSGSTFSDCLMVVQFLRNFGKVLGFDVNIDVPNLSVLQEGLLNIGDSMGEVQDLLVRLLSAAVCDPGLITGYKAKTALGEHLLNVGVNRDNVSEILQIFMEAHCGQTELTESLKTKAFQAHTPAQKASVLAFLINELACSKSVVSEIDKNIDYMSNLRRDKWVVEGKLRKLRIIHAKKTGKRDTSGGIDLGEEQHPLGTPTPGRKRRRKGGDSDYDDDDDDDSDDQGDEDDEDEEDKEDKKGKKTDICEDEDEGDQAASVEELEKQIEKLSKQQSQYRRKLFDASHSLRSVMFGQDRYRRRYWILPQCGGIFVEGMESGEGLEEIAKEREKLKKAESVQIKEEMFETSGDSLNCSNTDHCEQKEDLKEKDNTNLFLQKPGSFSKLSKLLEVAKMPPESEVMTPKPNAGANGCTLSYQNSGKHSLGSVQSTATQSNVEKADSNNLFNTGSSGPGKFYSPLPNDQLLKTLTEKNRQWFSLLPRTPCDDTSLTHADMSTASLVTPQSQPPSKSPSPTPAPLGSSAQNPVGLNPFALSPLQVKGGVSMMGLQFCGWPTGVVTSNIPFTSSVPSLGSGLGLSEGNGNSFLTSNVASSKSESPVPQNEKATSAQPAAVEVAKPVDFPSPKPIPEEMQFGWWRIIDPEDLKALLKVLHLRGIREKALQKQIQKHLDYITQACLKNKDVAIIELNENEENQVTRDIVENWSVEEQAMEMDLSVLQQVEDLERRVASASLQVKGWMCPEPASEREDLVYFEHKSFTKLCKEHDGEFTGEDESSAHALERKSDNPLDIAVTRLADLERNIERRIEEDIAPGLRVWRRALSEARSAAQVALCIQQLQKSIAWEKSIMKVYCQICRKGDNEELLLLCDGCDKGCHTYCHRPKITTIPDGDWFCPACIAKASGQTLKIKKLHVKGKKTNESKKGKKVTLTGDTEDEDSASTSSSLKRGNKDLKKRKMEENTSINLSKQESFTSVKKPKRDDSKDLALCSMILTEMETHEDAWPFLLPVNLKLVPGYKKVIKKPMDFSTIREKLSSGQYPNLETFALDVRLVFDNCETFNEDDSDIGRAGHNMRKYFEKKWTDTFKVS
Method in brief: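 AlphaScreen displacement: compounds (up to 110uM) incubated 30 min at room temperature with a preformed 50 nM BAZ2B/50 nM biotinylated H3K14Ac peptide complex in PBS pH 7.4 with Tween-20. Donor and acceptor beads at 10 ug/mL final added, 20 min light-protected before reading.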
Potency is the fitted concentration of half-maximal effect; tags give direction and shape of the fitted curve.

Row | Structure (SMILES) | Potency
1 | Cc1ccc(NC(=O)c2cc([N+](=O)[O-])ccc2NCc2cccnc2)cc1 | inconclusive: 39.8 µM [inhibitor, full curve, poor fit]
2 | CCN1CCN(c2ccc(NC(=O)c3ccc4c(c3)[nH]c(=O)n4Cc3ccc(OC)cc3)cc2)CC1 | inconclusive: 50.1 µM [inhibitor, partial curve]
3 | COc1ccc(N2CCN(c3nc(=S)n(-c4ccccc4)c(C)c3C(C)=O)CC2)cc1 | inactive
4 | CCC(=O)Nc1ccc(S(=O)(=O)Nc2nccs2)cc1 | inconclusive: 89.1 µM [inhibitor, single point]
5 | Cc1oc(-c2cccs2)nc1CN1CCC(c2ccccc2)CC1 | inconclusive: 56.2 µM [inhibitor, partial curve]
6 | NC(=O)CC(NC(=O)c1ccc(Br)cc1)c1ccc(N2CCCCCC2)c([N+](=O)[O-])c1 (centres undefined) | inconclusive: 28.2 µM [inhibitor, partial curve]
7 | Cc1ccc(NC(=O)Cn2c(=O)c3ccccc3n3nncc23)cc1 | inactive
8 | CC(=O)Nc1cccc(NC(=O)CSc2cn(CC(=O)N(C(C)C)C(C)C)c3ccccc23)c1 | inconclusive: 79.4 µM [inhibitor, single point]
9 | O=C(O)/C=C/C(=O)Nc1ccc2c(c1)C(=O)c1ccccc1C2=O | inconclusive: 50.1 µM [inhibitor, partial curve]
10 | O=C(c1n[nH]c2ccccc12)N1CCN(c2ccc(F)cc2)CC1 | inactive
11 | O=C1/C(=C\c2ccco2)SC(=S)N1C1CCS(=O)(=O)C1 (centres undefined) | active: 39.8 µM
12 | COc1ccccc1-c1nc(C#N)c(NCc2ccc(F)cc2)o1 | active: 50.1 µM
13 | COc1cc(/C=N/NC(=O)c2ccc(N)cc2)ccc1OC(=O)c1cccc(C)c1 | inconclusive: 44.7 µM [inhibitor, partial curve]
14 | COc1ccc(OC)c(CNC(=O)CCCc2cn(C)c3ccccc23)c1 | inconclusive: 89.1 µM [inhibitor, single point]
15 | Cc1ccccc1CSc1nnc(Cn2c(=O)sc3ccccc32)n1C | inactive
16 | Cc1ccc(N/N=C(\C#N)C(=O)c2ccsc2)cc1 | inconclusive: 50.1 µM [inhibitor, partial curve]
17 | N#CC1=C(N)Oc2cc(Nc3ccccc3)ccc2C1c1ccncc1 (centres undefined) | inconclusive: 50.1 µM [inhibitor, partial curve]
18 | NC(CSS(=O)(=O)O)=NCCC12CC3CC(CC(O)(C3)C1)C2 | inactive
19 | CCc1ccccc1NS(=O)(=O)c1c(C(=O)N2CCCCCC2)c(C)n(C)c1C | inconclusive: 25.1 µM [inhibitor, partial curve, poor fit]
